The results in this text go back to PMC1266353.

Results are given in words; binding and its absence hold for the method and conditions named. In cells and extracts the contact can be indirect. Some entries that bind do so weakly or less than the wild type.

Assay [1] addresses T1, KIF1Bα (human), overexpressed (human) (UniProt O60333).
T1 sequence: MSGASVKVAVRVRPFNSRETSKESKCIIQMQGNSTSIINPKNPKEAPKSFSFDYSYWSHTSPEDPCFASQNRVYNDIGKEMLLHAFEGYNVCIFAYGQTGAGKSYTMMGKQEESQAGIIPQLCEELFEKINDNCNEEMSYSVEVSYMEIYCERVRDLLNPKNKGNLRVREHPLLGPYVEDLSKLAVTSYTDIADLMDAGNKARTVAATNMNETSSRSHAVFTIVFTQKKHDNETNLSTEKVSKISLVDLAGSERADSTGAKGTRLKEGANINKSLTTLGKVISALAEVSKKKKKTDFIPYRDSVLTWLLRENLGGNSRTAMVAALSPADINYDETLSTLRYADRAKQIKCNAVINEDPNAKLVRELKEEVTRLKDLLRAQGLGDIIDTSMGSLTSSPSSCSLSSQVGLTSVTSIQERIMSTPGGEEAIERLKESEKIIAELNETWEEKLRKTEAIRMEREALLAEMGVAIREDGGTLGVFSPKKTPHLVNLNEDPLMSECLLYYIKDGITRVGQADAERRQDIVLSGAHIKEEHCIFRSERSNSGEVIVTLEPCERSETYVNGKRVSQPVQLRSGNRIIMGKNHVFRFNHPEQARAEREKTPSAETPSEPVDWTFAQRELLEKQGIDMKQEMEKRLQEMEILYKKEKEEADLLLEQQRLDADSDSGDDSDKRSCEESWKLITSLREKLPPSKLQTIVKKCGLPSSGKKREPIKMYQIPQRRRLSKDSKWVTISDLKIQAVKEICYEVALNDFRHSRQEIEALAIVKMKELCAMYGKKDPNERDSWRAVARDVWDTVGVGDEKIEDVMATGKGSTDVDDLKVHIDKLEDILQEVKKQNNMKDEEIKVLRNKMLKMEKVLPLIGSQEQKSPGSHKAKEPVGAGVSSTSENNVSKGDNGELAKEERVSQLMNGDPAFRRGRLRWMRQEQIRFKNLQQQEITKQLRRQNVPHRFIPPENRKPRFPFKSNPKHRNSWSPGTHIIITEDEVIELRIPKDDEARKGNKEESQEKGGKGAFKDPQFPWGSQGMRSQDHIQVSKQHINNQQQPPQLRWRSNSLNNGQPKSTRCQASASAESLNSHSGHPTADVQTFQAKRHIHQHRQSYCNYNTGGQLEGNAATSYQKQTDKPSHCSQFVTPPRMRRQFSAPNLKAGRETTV
The assay can be described thus: co-IP; 293 cells transiently overexpressing KBP-VSV alone or with KIF1Bα; Triton X-100 lysate; precipitated with anti-KIF1B serum, blotted with VSV antibody; 4°C.

The target in assay [2] is T2, KIF1Bα350-1135-VSV (human) (UniProt O60333).
T2 sequence: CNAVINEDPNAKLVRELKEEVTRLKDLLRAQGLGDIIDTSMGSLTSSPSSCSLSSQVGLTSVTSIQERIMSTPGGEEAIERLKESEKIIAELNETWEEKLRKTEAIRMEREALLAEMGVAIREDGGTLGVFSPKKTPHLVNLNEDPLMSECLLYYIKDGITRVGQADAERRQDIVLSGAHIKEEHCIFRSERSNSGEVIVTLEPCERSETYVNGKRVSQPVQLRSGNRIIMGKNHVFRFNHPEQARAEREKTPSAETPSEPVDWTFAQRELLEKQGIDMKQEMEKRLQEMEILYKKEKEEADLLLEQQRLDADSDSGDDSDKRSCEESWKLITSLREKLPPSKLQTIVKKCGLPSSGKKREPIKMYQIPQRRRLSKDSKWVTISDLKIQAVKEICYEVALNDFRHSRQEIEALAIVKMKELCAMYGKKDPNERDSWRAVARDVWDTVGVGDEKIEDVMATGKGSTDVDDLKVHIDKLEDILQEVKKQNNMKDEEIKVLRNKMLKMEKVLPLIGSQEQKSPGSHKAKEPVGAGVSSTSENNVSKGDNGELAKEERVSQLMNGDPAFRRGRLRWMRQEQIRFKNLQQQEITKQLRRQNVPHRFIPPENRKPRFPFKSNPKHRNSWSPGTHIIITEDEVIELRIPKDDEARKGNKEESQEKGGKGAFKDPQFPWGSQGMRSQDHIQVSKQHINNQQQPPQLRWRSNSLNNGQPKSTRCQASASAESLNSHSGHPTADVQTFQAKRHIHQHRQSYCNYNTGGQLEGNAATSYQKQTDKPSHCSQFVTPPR
The assay can be described thus: co-IP; 293 cells transiently overexpressing KBP alone or with KIF1Bα-MYC or KIF1Bα350-1135-VSV; precipitated with VSV or MYC antibody; KBP detected with the specific antibody.

B1: KBP-VSV (protein, UniProt Q96EK5 1-621)
chain: MANVPWAEVCEKFQAALALSRVELHKNPEKEPYKSKYSARALLEEVKALLGPAPEDEDERPEAEDGPGAGDHALGLPAEVVEPEGPVAQRAVRLAVIEFHLGVNHIDTEELSAGEEHLVKCLRLLRRYRLSHDCISLCIQAQNNLGILWSEREEIETAQAYLESSEALYNQYMKEVGSPPLDPTERFLPEEEKLTEQERSKRFEKVYTHNLYYLAQVYQHLEMFEKAAHYCHSTLKRQLEHNAYHPIEWAINAATLSQFYINKLCFMEARHCLSAANVIFGQTGKISATEDTPEAEGEVPELYHQRKGEIARCWIKYCLTLMQNAQLSMQDNIGELDLDKQSELRALRKKELDEEESIRKKAVQFGTGELCDAISAVEEKVSYLRPLDFEEARELFLLGQHYVFEAKEFFQIDGYVTDHIEVVQDHSALFKVLAFFETDMERRCKMHKRRIAMLEPLTVDLNPQYYLLVNRQIQFEIAHAYYDMMDLKVAIADRLRDPDSHIVKKINNLNKSALKYYQLFLDSLRDPNKVFPEHIGEDVLRPAMLAKFRVARLYGKIITADPKKELENLATSLEHYKFIVDYCEKHPEAAQEIEVELELSKEMVSLLPTKMERFRTKMALT
With B1, the binding result in assay [1] was “binds”.

B2: KBP, overexpressed in 293 cells (protein, UniProt Q96EK5 1-621)
chain: MANVPWAEVCEKFQAALALSRVELHKNPEKEPYKSKYSARALLEEVKALLGPAPEDEDERPEAEDGPGAGDHALGLPAEVVEPEGPVAQRAVRLAVIEFHLGVNHIDTEELSAGEEHLVKCLRLLRRYRLSHDCISLCIQAQNNLGILWSEREEIETAQAYLESSEALYNQYMKEVGSPPLDPTERFLPEEEKLTEQERSKRFEKVYTHNLYYLAQVYQHLEMFEKAAHYCHSTLKRQLEHNAYHPIEWAINAATLSQFYINKLCFMEARHCLSAANVIFGQTGKISATEDTPEAEGEVPELYHQRKGEIARCWIKYCLTLMQNAQLSMQDNIGELDLDKQSELRALRKKELDEEESIRKKAVQFGTGELCDAISAVEEKVSYLRPLDFEEARELFLLGQHYVFEAKEFFQIDGYVTDHIEVVQDHSALFKVLAFFETDMERRCKMHKRRIAMLEPLTVDLNPQYYLLVNRQIQFEIAHAYYDMMDLKVAIADRLRDPDSHIVKKINNLNKSALKYYQLFLDSLRDPNKVFPEHIGEDVLRPAMLAKFRVARLYGKIITADPKKELENLATSLEHYKFIVDYCEKHPEAAQEIEVELELSKEMVSLLPTKMERFRTKMALT
In the case of B2, the binding result in assay [2] was “no binding”.
